In PubChem BioAssay AID1745853 (National Center for Advancing Translational Sciences (NCATS), 2022):
Several values for one entry are separate records, joined by “and”; a condition that tells them apart may be missing. Identical values can stand only once. This is one part of the list. The main result of the screen is listed elsewhere. These columns were measured beside it and carry no call.

Columns and labels:
Test in all cases: Primary Screen for Target Class Profiling of Small Molecule Inhibitors of Methyltransferases
[1] = molecular target: Glycine N-methyltransferase (Homo sapiens) (UniProt Q14749); conditions: purified enzyme, MTase-Glo SAH luminescence; measured here: GNMT inhibition; at 40 µM; stronger effect = lower value
Method in brief: (§1)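 Each enzyme was assayed with SAM and its substrate. SAH formation detected by MTase-Glo luminescence; single-point 40 uM screen[…].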

[2] = molecular target: Guanidinoacetate N-methyltransferase (Homo sapiens) (UniProt Q14353); conditions: purified enzyme, MTase-Glo SAH luminescence; measured here: GAMT inhibition; at 40 µM; stronger effect = lower value
Method in brief: as §1

[3] = molecular target: Histamine N-methyltransferase (Homo sapiens) (UniProt P50135); conditions: purified enzyme, MTase-Glo SAH luminescence; measured here: HNMT inhibition; at 40 µM; stronger effect = lower value
Method in brief: as §1

[4] = molecular target: Nicotinamide N-methyltransferase (Homo sapiens) (UniProt P40261); conditions: purified enzyme, MTase-Glo SAH luminescence; measured here: NNMT inhibition; at 40 µM; stronger effect = lower value
Method in brief: as §1

[5] = molecular target: Phenylethanolamine N-methyltransferase (Homo sapiens) (UniProt P11086); conditions: purified enzyme, MTase-Glo SAH luminescence; measured here: PNMT inhibition; at 40 µM; stronger effect = lower value
Method in brief: as §1
% is scaled to controls: 0 for no effect and ±100 for the full control effect.

| Compound | activity change, negative = inhibition [1] | activity change, negative = inhibition [2] | activity change, negative = inhibition [3] | activity change, negative = inhibition [4] | activity change, negative = inhibition [5] |
| --- | --- | --- | --- | --- | --- |
| CCc1cc(CN2CC(C(=O)O)C2)sc1-c1noc(-c2ccc(Oc3ccccc3)cc2)n1 | -3.14% | 1.61% | 4.81% | -8.79% | 1.37% |
| C/C(=C/C=C\C=C\Cc1cnco1)[C@@H](O)C(C)(C)C(N)=O | -2.85% | 2.8% | -2.38% | -10.5% | 0.542% |
| COc1ccc(-c2nn3c(-c4ccco4)nnc3s2)cc1OC | – | -7.84% | – | -23.3% | -2.37% |
| CCc1cc(=O)[nH]c(N2CCOCC2)n1 | -3.25% | -2.77% | -0.167% | -10.2% | -1.57% |
| Cc1ccc(Cn2c(=O)c3ccccc3n3c(SCC(=O)Nc4ccc(C)c(C)c4)nnc23)cc1 | 0.991% | 4.96% | 6.07% | -1.14% | 2.26% |
| CC1CCCC(NC(=O)C2(C)Cn3c(ccc3-c3ccco3)C(=O)N2Cc2ccco2)C1C (stereo not drawn) | -1.17% | 0% | 0.71% | -8.34% | -1.88% |
| Cc1ccc(Cn2c(=O)c3ccccc3n3c(CCC(=O)Nc4ccc(C)c(C)c4)nnc23)cc1 | 3.72% | 0% | 7.55% | 3.71% | 1.82% |
| O=C(O)c1cccnc1C(=O)O | 3.64% | 16.1% | 8.68% | 0.512% | 5.98% |
| CC1(C(=O)NC2CCCCCC2)Cn2nc(-c3ccco3)cc2C(=O)N1Cc1ccccc1F (stereo not drawn) | -3.62% | 2.28% | -2.34% | -4.8% | -6.23% |
| CCc1cccc(NS(=O)(=O)c2cc3c(cc2Cl)n(C)c(=O)n3C)c1 | 5.12% | 0.873% | -1.95% | 3.06% | 2.32% |
| CCOCCCNc1nc2c(S(=O)(=O)c3ccccc3)nnn2c2ccc(Cl)cc12 | -16.6% | 3.58% | -4.68% | -5.57% | -6.62% |
| Cc1cc2[nH]c(=O)[nH]c2cc1S(=O)(=O)N1CCC(C)CC1 | 9.31% | 4.23% | 8.24% | -4.66% | 2.37% |
| CC1(C(=O)NC2CCCCC2)Cn2nc(-c3ccco3)cc2C(=O)N1c1ccccc1F (stereo not drawn) | -1.07% | 4.65% | 1.75% | 2.38% | -2.56% |
| CCOC(=O)c1cc2n(n1)CC(C)(C(=O)NCCC(C)C)N(c1ccc3c(c1)OCO3)C2=O (stereo not drawn) | -0.517% | 4.19% | 1.2% | 7.77% | -2.77% |
| C[C@@H]1CC[C@]2(C(=O)O[C@@H]3O[C@H](CO[C@@H]4O[C@H](CO)[C@@H](O)[C@H](O)[C@H]4O)[C@@H](O)[C@H](O)[C@H]3O)CC[C@]3(C)C(=CCC4[C@@]5(C)CC[C@H](O)[C@](C)(C(=O)O)C5CC[C@]43C)[C@@H]2[C@]1(C)O (stereo partly drawn) | 2.05% | -1.85% | 7.19% | -14.9% | -1.16% |
| CCCn1c(=O)c2ccccc2n2c(SCC(=O)Nc3cc(Cl)ccc3C)nnc12 | -4.88% | 4% | 2.47% | -9.81% | 1.38% |
| CCCn1c(=O)c2ccc(C(=O)NCC(C)C)cc2n2c(=O)n(C(C)C(=O)c3ccc(C)c(C)c3)nc12 (stereo not drawn) | -0.124% | 0% | 1.33% | -4.03% | 3.36% |
| COc1cccc(CN2C(=O)c3cc(C(C)(C)C)nn3CC2(C)C(=O)NC2CCCCCC2)c1 (stereo not drawn) | 5.51% | 1.19% | 7.65% | 0.497% | 1.33% |

| Compound | activity change, negative = inhibition [1] | activity change, negative = inhibition [2] | activity change, negative = inhibition [3] | activity change, negative = inhibition [4] | activity change, negative = inhibition [5] |
| --- | --- | --- | --- | --- | --- |
| Cn1ncc(N2CCC(CNC(=O)c3cccc4ccnn34)C2)cc1=O (stereo not drawn) | -5.92% | -4.83% | -0.181% | -14.7% | 0.718% |
| CCCn1c(=O)c2ccccc2n2c(=O)n(Cc3cc(C)ccc3C)nc12 | 5.08% | 0.055% | 9.09% | -1.02% | 5.26% |
| CCOc1ccc(OCC)c(NS(=O)(=O)c2ccc3[nH]c4c(c3c2)CCCC4)c1 | 4.06% | 4.3% | 2.55% | -1.59% | 0.152% |
| O=C(O)C[C@@H]1CCN(S(=O)(=O)c2ccccc2)C[C@@H]1CCN(CCN1CCOCC1)c1ccccc1 | -13% | -3.31% | -5.3% | -4.07% | -0.056% |
| COc1ccc(CNC(=O)c2cc3n(n2)CC(C)(C(=O)NCCC(C)C)N(C)C3=O)cc1 (stereo not drawn) | 6.83% | 0% | 8.3% | 9.69% | 6.42% |
| C=C1C(=O)O[C@H]2/C=C(/C)[C@@H](OC(C)=O)C/C=C(\C)C[C@@H](OC(=O)/C(=C/C)COC(=O)/C(=C/C)CO)[C@@H]12 | 4.03% | 3.82% | 10.3% | -7.4% | 7.19% |
| CC(C)NC(=O)N1Cc2c(sc3c2CCCC3)-n2cccc2C1c1ccc(Cl)cc1 (stereo not drawn) | -3.24% | 4.85% | 1% | -4.16% | 2.23% |
| Cc1ccccc1CN1C(=O)c2cc3sccc3n2CC1(C)C(=O)NC1CCCCC1 (stereo not drawn) | -4.56% | 2.71% | -3.21% | 1.82% | -1.18% |
| CC(C)(C)c1ccc(CNC(=S)NCc2ccc(NS(C)(=O)=O)c(F)c2)cc1 | -15.6% | -24.2% | -8.7% | -42.7% | -17.4% |
| COC(=O)c1ncn2c1C(=O)N(Cc1ccc(OC(C)C)cc1)C(C)(C(=O)NCc1ccccc1)C2 (stereo not drawn) | 5.3% | 0.917% | 13.4% | 7.04% | 9.65% |
| CN(C)c1ccc(CNC(=O)CNC(=O)C2(C)Cn3c(cc4ccccc43)C(=O)N2C)cc1 (stereo not drawn) | 0.622% | 0% | 0.354% | -3.9% | 0.554% |
| CCC(C)NC(=O)c1ccc2c(=O)n(C(C)C)c3nn(CC(=O)N(C)c4ccc(F)cc4)c(=O)n3c2c1 (stereo not drawn) | 1.45% | 4.41% | -3.92% | -5.11% | -0.133% |
| CC(C)n1ccnc1CN1CCC2(CCCO2)CCC1=O (stereo not drawn) | -3.07% | -4.64% | -0.888% | -9.42% | -4% |
| CCn1cc(CN2C[C@@H]3C(=O)N(CCCN4CCCC4=O)C(=O)[C@@H]3C2)cn1 | 0.537% | -1.17% | 2.85% | 1.83% | -2.4% |
| CN1C(=O)c2cc(C(=O)NCCCN3CCc4ccccc4C3)nn2CC1(C)C(=O)NCc1ccccc1 (stereo not drawn) | -14% | -1.02% | -10.8% | -4.21% | -5.05% |
| CC(=O)O[C@@H]1C[C@@H](OC(C)=O)C(C)(C)/C=C/[C@H](C)[C@H](OC(C)=O)[C@@]2(O)C[C@H](C)[C@H](OC(=O)c3ccccc3)[C@@H]2/C=C/1C | 0.974% | 2.52% | 5.13% | -11.7% | -8.77% |
| CCOc1ccc(-c2ccc(Cn3c(CC(C)(C)C(=O)O)c(SC(C)(C)C)c4cc(OCc5ccc(C)cn5)ccc43)cc2)cn1 | -15.7% and -8.52% | -15.6% and -5.87% | -7.78% and 8.38% | -86.6% and -74% | -40% and -21.4% |
| COc1cc2ncnc(Nc3ccc(F)c(Cl)c3)c2cc1OCCCN1CCOCC1 | -68.4% | -62.8% | -76.3% | -68.7% | -74.3% |
